Reference: ChEMBL document CHEMBL4888484, “Replenishing the malaria drug discovery pipeline: Screening and hit evaluation of the MMV Hit Generation Library 1 (HGL1) against asexual blood stage Plasmodium falciparum ,using a nano luciferase reporter read-out” (2022)
The whole screen tested about 150,000 compounds, of which about 540 (0.36%) showed an effect of 50% or more. This is one part of the list.

Tested on: Plasmodium falciparum
Assay: Primary screen in NF54 nanoGlo assay, in single point, at 2uM, 72h; a lower Z score goes with more inhibition
Format: functional, Erythrocyte
Conditions: timepoint 72 hour

SMILES	% Inhibition [%]	Z score
Cc1nc(CN(C)C(=O)[C@@H]2CCC[C@H](O)C2)no1	-19	2.51
CC[C@H]1c2cccn2CCN1C(=O)CCc1c(C)nn(C)c1C	-9	1.64
CCCC1CC(C(=O)N2CC(C)OC(CO)C2)CCO1 (centres undefined)	2	-0.28
CC(=O)C(C(C)=O)=C(N)NC(=O)c1ccccc1	-13	1.41
O=C(N[C@H]1CCO[C@@H]1c1ccnn1-c1ccccc1)C1CC=CC1	-2	0.26
COC(=O)C[C@H](C)NC(=O)Cn1ncc(=O)c2ccccc21	14	-1.58
COCCOc1cccc(C(=O)N2CCC[C@H]2c2nc(-c3ccccc3)n[nH]2)c1	-3	0.42
COc1cc(C(=O)NCCc2cnn(C)c2)nc(OC)n1	8	-1.69
O=C(CCc1ccc(O)cc1)NCc1cc2n(n1)CCN(C1CCCCC1)C2	6	-1.1
CCCc1nc(CN2CCc3ccc(F)cc3C2)no1	-4	0.53
COc1ncccc1CNC(=O)C(=O)N1CCOCC1CC(C)O (centres undefined)	0	-0.07
O=C(CN1CCN(C(=O)c2ccccc2OC(F)F)CC1)NC1CCCC1	-2	0.35
CCc1cc(N2CCN(C(=O)c3cc(OC)cc(OC)c3)CC2)nc2nncn12	6	-0.85
COc1ccc(-c2n[nH]c(C3CC3)c2NC(=O)Nc2ccccc2F)c(OC)c1	-2	0.32
Cc1ccc(-c2nc(CN(Cc3nccn3C)C(C)C)c(C)o2)cc1	-7	1.14
CC(C)(CO)[C@H](CNC(=O)c1nc2cccnc2s1)c1ccccc1	-2	0.27
O=C(CCCc1ccccc1)Nc1ccc2c(c1)OCO2	3	-0.45
Cc1n[nH]c(C)c1C(=O)N[C@H]1CCc2n[nH]c(=O)cc2C1	-9	1.48
Cc1ccccc1NC(=O)[C@H](C)N1CCC(C)(CN2CCOCC2)CC1	-10	1.9
c1cc(CN[C@H]2CCc3ncnn3C2)c2[nH]ccc2c1	1	-0.25
CC(NC(=O)C1CCN(C)C(=O)C1)c1ccc(F)cc1F (centres undefined)	-4	0.42
CCOC(=O)[C@](C)(C#N)c1ncccc1Cl	0	-0.07

SMILES	% Inhibition [%]	Z score
CC(C)(O)CN1CCCN(C(=O)[C@@]2(C)CC2(Cl)Cl)CC1	1	-0.12
COC(=O)CNC(=O)N1CCC2(CC1)CN(c1cccc(F)c1)[C@@H]2c1ccccc1	0	0
O=C(NCCc1cccs1)c1ccc(S(=O)(=O)N2CCOCC2)cc1	-9	1.57
O=C(NC(c1ccc(F)cc1F)[C@H]1C[C@H](O)C1)c1cc(Cl)c[nH]c1=O (some centres undefined)	14	-1.88
C#CCN[C@@H](CC(N)=O)C1CCCCC1	-10	2
COc1ccc(NC(=O)c2sc3nccc(=O)n3c2C(=O)O)cc1	-28	3.74
Cc1cccc(N2CCN(c3cccc(C)c3)C2c2cccnc2)c1	-7	0.92
COc1nccnc1-c1cc(O)cc(CC[C@H]2CCCCN2)c1	-23	3.42
O=C(N[C@H](C(=O)c1ccccc1)N1CCOCC1)c1ccco1	0	0.03
C[C@@H](C1CC1)N(C)S(=O)(=O)c1ccc2c(c1)NC(=O)CO2	-12	1.11
Cc1cccc(Cn2c(-c3[nH]cnc3C)n[nH]c2=O)c1	-6	1.16
CC(C)CCNC(=O)C1CN(C(=O)c2ccc3c(c2)OCO3)CC1c1ccc(F)cc1 (centres undefined)	7	-0.84
OCc1cc2n(n1)CCN(c1ncc(C(F)(F)F)cc1Cl)C2	-23	2.3
Cn1cccc1CNC1CCCCCC1C(N)=O (centres undefined)	36	-4.91
Cc1noc(C)c1S(=O)(=O)Nc1ccccc1C(=O)NCc1ccco1	0	-0.04
COC(=O)CN1CCCN(Cc2cnc(C(C)(C)C)s2)CC1	0	0.01
CC(NC(=O)NCC1CCCO1)C(C)(C)C (centres undefined)	-15	2.38
Cn1nccc1CC(=O)N1CCOC[C@H]1C1CCC1	-7	1.31
COCc1nc(C)c(C(=O)OCC#Cc2ccccn2)s1	-6	1.15
O=C(C1CC2C=CC1C2)N1CCc2ccccc2C1 (centres undefined)	-18	2.11
CC1(C(=O)N[C@H]2CCn3ccnc32)COC1	-19	2
COCC(=O)NC1CCN(Cc2nc(-c3cccs3)no2)CC1	0	0.07

SMILES	% Inhibition [%]	Z score
Cc1nc(-c2ccc3c(c2)n(CC(=O)Nc2ccccc2C)c(=O)n3C(C)C)no1	-9	1.08
CCc1cnccc1C(=O)Nc1cccc(-n2cnnc2)c1	-9	1.65
Cc1cccc(NC(=O)Cn2nc(C(=O)N3CCN(C)CC3)cc2C)c1C	4	-0.78
CCn1c(C)nc2cc(NS(=O)(=O)c3ccccc3)cc(C(=O)NCc3cccc(F)c3F)c21	-8	1.46
Cc1cc(=O)c(C(=O)N2CCC[C@H](C#N)C2)cn1C	4	-0.6
COCCN1CCN(c2ncc(F)cn2)CC1=O	3	-0.42
Cc1cc(C)nc(CCNC(=O)c2nc3ncccn3n2)n1	-16	2.09
CN(C[C@H]1CCOC1)S(=O)(=O)Cc1cccc(Cl)c1	-2	0.31
Cc1ccc(N2CCCC2)c(C(=O)N(C)CCn2cccn2)c1	-4	0.53
O=C(Cn1nnn(-c2ccc(NC(=O)c3cc(Cl)ccc3Cl)cc2)c1=O)NC1CC1	-8	1.54
COCCn1ccnc1CN(C)C[C@H]1CCOC1	-11	2.13
C[C@@H](c1cccnc1)N(C)Cc1nc2c(s1)CCC2	-18	3.45
COc1ccc(S(=O)(=O)N(C)c2ccc3sc(C(=O)N4CCOCC4)cc3c2)cc1	-8	0.99
O=C(O)[C@H]1CCCN1C(=O)CCCc1ccc(F)c(F)c1	-3	0.35
Cn1cc(C(=O)N2CC=C(c3c[nH]c4ccccc34)CC2)cn1	-6	0.88
CCN1CCCN(C(=O)c2cc(O)nc3c(F)cc(C)cc23)CC1	-3	0.45
CCC(C)C(NC(=O)N1CCCN(CC)C(=O)C1)C(F)(F)F (centres undefined)	5	-0.68
O=C(c1cn(C(c2ccccc2)c2ccccc2)nn1)N(Cc1ccccc1)CC1CC1	-1	0.16
N#Cc1cc(CN(Cc2cccnc2)Cc2ccco2)ccc1F	3	-0.5
CCn1cc(Br)c(=O)c(NC(=O)c2cn(C(C)(C)C)nn2)c1	4	-0.5
CCc1nsc(N[C@H]2CCCCCN(C(=O)c3nccnc3N)C2)n1	-3	0.41
COc1ccc(OC)c(-c2ccc3c(c2)CN(C)C3=O)c1	-5	0.83

SMILES	% Inhibition [%]	Z score
Cc1nc(CNCc2c[nH]nc2-c2cccnc2)cs1	-14	1.89
COc1ccc(CCNC(=O)c2ccc[n+]([O-])c2)cc1OC	6	-0.78
CN(C)S(=O)(=O)c1ccc(-c2noc(C3(C#N)CCCC3)n2)cc1	-9	0.78
CO[C@H]1CCCOC12CCN(C(=O)c1ccc(-n3nc(C)cc3C)cc1)CC2	-12	1.85
CC(C)c1noc(Cc2ccc(NC(=O)CC3CC3)cc2)n1	-6	0.69
CN1C(=O)C2(CCN(C(=O)CCC3CCCC3)CC2)c2ccccc21	-7	1.09
C[C@]1(O)CCN(c2nc3ccccc3s2)C[C@H]1Cc1ccccc1	-16	1.55
CC(C)c1nc(-c2noc(CCn3cnccc3=O)n2)cs1	2	-0.32
CS(=O)(=O)Cc1ccc(-c2ccc(OCc3ccccc3)nc2)nc1	3	-0.45
CC1(C)CCC[C@H](CS(=O)(=O)NCCc2cnoc2)O1	-5	0.79
Cc1cc2ncc3c(n2n1)CCN(C(=O)c1cc2ccccc2[nH]1)C3	3	-0.51
COc1cccc([C@H](CNC(=O)C2CCN(S(=O)(=O)c3ccc4c(c3)CCC4)CC2)N(C)C)c1	-12	1.08
Cc1cccc(N2CCN(C(=O)C(C)(C)c3c[nH]cn3)CC2)c1C	-9	1.58
Cc1nn(-c2ccccc2)c(Oc2ccccc2)c1CN(CC(C)C)C(=O)c1cccc(F)c1	-11	1.04
O=C(C1CC1c1ccccc1F)N1CCCC(CN2CCOCC2)C1 (centres undefined)	-16	2.3
O=C(NC1CCCCC1)c1ccc(-n2ccnc2-c2cccnc2)cc1	-6	0.54
Cc1ccc(C)c(C(=O)N2CCC3(CC2)N(C)C(=O)CS3(=O)=O)c1	-13	1.91
Cc1ccsc1-c1noc([C@H]2CCC(=O)NC2)n1	-7	1.33
Cn1nc(-c2cccc(Cl)c2)cc1C(=O)N1CCO[C@H](c2ccccc2)C1	-9	1.18
O=C(CS(=O)(=O)c1ccccc1)NCc1ccncc1	-8	1.02
COc1ccnc(N2CCc3ccc(F)cc32)n1	1	-0.21
